Reference: paper PMC4336329 (PLoS ONE, 2015)
The campaign covered roughly 310,000 compounds. About 2,200 (0.71%) showed an effect of 50% or more. Effects have a minus sign here. This is one part of the list.

What follows are compounds tested against human ether-à-go-go-related gene (hERG) potassium channel (human, UniProt Q12809) (assay: primary screen, population patch clamp on CHO cells stably expressing hERG).
Sequence of human ether-à-go-go-related gene (hERG) potassium channel (Q12809 whole entry, looked up): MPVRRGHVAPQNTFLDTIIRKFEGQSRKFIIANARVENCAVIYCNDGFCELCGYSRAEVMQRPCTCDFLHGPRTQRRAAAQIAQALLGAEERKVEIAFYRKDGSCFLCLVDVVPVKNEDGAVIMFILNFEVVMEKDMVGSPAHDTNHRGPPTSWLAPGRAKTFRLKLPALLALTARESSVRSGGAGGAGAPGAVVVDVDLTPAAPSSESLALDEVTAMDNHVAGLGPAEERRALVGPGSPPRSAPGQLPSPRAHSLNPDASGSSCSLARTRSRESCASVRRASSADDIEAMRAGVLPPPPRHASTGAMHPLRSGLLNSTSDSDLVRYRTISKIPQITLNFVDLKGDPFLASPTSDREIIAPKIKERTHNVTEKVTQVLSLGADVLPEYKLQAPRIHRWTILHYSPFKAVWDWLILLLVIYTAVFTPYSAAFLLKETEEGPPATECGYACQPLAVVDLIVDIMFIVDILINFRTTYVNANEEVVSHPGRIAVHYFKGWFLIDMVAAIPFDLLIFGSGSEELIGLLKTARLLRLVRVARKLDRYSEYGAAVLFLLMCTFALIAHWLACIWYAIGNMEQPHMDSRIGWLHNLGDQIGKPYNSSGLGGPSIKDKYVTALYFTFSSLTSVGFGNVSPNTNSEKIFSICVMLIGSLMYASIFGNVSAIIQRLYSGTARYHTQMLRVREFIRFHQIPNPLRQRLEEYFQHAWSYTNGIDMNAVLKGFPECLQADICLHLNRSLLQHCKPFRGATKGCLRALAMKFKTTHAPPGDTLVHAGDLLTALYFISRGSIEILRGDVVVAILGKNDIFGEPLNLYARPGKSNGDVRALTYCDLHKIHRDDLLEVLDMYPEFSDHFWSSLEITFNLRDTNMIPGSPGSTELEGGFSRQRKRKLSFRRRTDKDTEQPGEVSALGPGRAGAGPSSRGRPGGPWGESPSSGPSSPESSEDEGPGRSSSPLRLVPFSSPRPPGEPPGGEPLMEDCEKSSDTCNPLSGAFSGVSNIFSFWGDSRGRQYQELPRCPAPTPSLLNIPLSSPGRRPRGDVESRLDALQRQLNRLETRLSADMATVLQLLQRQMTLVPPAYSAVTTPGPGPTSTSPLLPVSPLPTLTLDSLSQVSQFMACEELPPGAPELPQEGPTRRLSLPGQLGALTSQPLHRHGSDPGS

| SMILES | hERG current change (%, negative = inhibition) at 1uM [%] |
| --- | --- |
| COc1cccc(C2C3=C(CC(C)(C)CC3=O)Nc3cc4c(cc32)OCO4)c1 (stereo not shown) | 1.65 |
| CCn1c(COc2ccc(=O)n(-c3ccccc3)n2)nnc1SCc1cccc(OC)c1 | -3.36 |
| CCCCN(Cc1ccccc1)C(=O)C1CCC(=O)N(CCc2ccccn2)C1 (stereo not shown) | 4.02 |
| CN(C)c1ccc(NC(=O)c2sc(SCC(=O)Nc3nccs3)nc2N)cc1 | 6 |
| Cc1ccc(NC(=O)COC(=O)c2ccc3c(c2)NC(=O)C2CCCN32)cc1 (stereo not shown) | -5.26 |
| CCc1ccc(C(CC(=O)c2ccc(Cl)cc2)C(=O)O)cc1 (stereo not shown) | 20 |
| COc1ccc(N(CC(=O)Nc2ccc(S(=O)(=O)N3CCCCC3)cc2)S(C)(=O)=O)cc1OC | 0.357 |
| O=C(Nc1ccc2c(c1)CCC2)C1CCN(c2c3c(nc4ncnn24)CCC3)CC1 | 2.36 |
| O=C(Nc1ccccc1Sc1ccccc1)c1ccccc1 | 10.8 |
| COc1cc(/C=C/C(=O)OCC(=O)Nc2ccc(Cl)cn2)ccc1O | 6.01 |
| CCc1cc(C(=O)OC)c(N2C(=O)C3C4C=CC(C4)C3C2=O)s1 (stereo not shown) | 22.2 |
| COc1cccc(CN2CC(C(=O)N3CCCCCCC3)CCC2=O)c1 (stereo not shown) | 9.63 |
| CC(C)=CCC/C(C)=C/C=N/NC(=O)c1cccc([N+](=O)[O-])c1 | 0.0005 |
| CSc1ncccc1C(=O)NC(C)CCc1ccccc1 (stereo not shown) | 11.5 |
| COC(CNC(=O)c1ccc2c(c1)nc(C)n2-c1cc(C)cc(C)c1)OC | 9.08 |
| Br.c1ccc(-c2ccccc2OCc2nnc3n2CCC3)cc1 | 9.06 |
| COc1ccc(OC)c(C(C(=O)NC2CCCCC2)N(C(=O)c2ccccn2)c2cccnc2)c1 (stereo not shown) | 11.6 |
| CC(C)c1ccc(NC(=O)c2ccc(NS(C)(=O)=O)cc2)cc1 | 14 |
| COc1ccccc1-c1nc(C#N)c(N2CCN(C(=O)c3ccco3)CC2)o1 | 8.37 |
| CNc1nc(N)c(C(=O)C(C)(C)C)s1 | -3.7 |
| N#Cc1ccccc1NC(=O)CN1CCN(c2ccccn2)CC1 | -4.25 |
| CCCCC(=O)Nc1c(C)cc(C)cc1Cl | 13.5 |
| Cc1ccc2nc(SCC(=O)NCC3CCCO3)c(C#N)cc2c1 (stereo not shown) | 14.7 |

| SMILES | hERG current change (%, negative = inhibition) at 1uM [%] |
| --- | --- |
| Cc1ccc(C(=O)NC(O)C(Cl)(Cl)Cl)cc1 (stereo not shown) | 10.5 |
| FC(F)(F)c1cc(Cl)c2nnc(-c3ccccn3)n2c1 | 5.06 |
| COc1ccc(C)cc1NC(=O)CNC(=O)[C@@H]1Cc2ccccc2CN1 | -1.48 |
| CC[n+]1ccccc1/C=C/Nc1ccccc1.[I-] | -5.67 |
| COC(=O)CNC(=O)c1cccc(Cl)c1 | 8.85 |
| O=C(CSc1nnc(CNC(=O)c2ccco2)o1)Nc1ccc(Cl)cc1 | 15.9 |
| CCCCNC(=S)NNC(=O)CCn1nc(C)c(Br)c1C | 11 |
| FC(F)(Cl)c1nnc2ccc(Cl)nn12 | 17.8 |
| CN(C)c1ccc(-c2cc(O)c3ncccc3c2)cc1.O=C(O)C(F)(F)F | 15.8 |
| CC(=O)Nc1ccccc1NC(=O)C/C(C)=N/NC(=O)c1ccccn1 | 12.6 |
| c1ccc2c(NCCCN3CCOCC3)c3ccccc3nc2c1 | -54.2 |
| CN(C)C(=O)CSc1n[nH]c(=O)n1CCc1ccccc1 | 15.1 |
| CN(C(=O)c1coc(=O)c2ccccc12)c1ccc(Br)cc1 | 6.53 |
| O=C(Nc1ccccc1Cl)C1Cc2ccccc2O/C1=N\O (stereo not shown) | 12 |
| CC(C)(C)c1ccc(N2C(=O)CC(c3ccccc3)C2=O)cc1 (stereo not shown) | 13.6 |
| COc1ccc(C)cc1NC(=O)CSc1nnc2ccc(-c3ccccn3)nn12 | 10.4 |
| O=C(NCC1COc2ccccc2O1)c1cccs1 (stereo not shown) | 4.27 |
| O=C(CSc1ncnc2c1cnn2-c1ccc(Cl)cc1)NCc1ccc2c(c1)OCO2 | 4.76 |
| C=CCn1cc(C(C)=O)c(=O)[nH]c1=O | 25.9 |
| Cc1ccccc1NC(=S)Nc1ccc2[nH]c(=O)[nH]c2c1 | 17.7 |
| Cc1cc(C)n(-c2nc3ccccc3c(=O)n2OCC#N)n1 | 6.97 |
| CC1CCC(NC(=O)c2nc(Cn3ccc([N+](=O)[O-])n3)no2)CC1 (stereo not shown) | -10.6 |
| O=C(NCCN1CCC(Cc2ccccc2)CC1)C1CCCN(S(=O)(=O)c2cnc[nH]2)C1 (stereo not shown) | 12.4 |
